# Assay results: PubChem BioAssay (Tox21)
# Several values for one entry are separate records, joined by “and”; a condition that tells them apart may be missing. Equal values may be shown once. This list was built around the results that the source calls inconclusive (neither active nor inactive); the mix of calls is not that of the screen. Where the call is inconclusive, the potency comes from a doubtful curve fit. Activity calls are given as the source filed them. Calls come from the whole dose curve; as a rule, active = well fitted cell-killing curve with a large enough effect in the repeat runs; inconclusive = weak or mixed curves, or effect the other way; inactive = flat fitted curve, though single readings scatter.
# Experiment: qHTS RealTime-Glo MT Cell Viability Assay in HEK293 cells - 24 hour (AID 1224886); note: nearly all actives have a fitted effect of over 50% in size
# Settings: RealTime-Glo luminescence; series mostly up to 76.8 µM
# Procedure, shortened: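 Homogeneous bioluminescent viability format in HEK293 cells (600 cells/well). Following 5 h at 37 C/5% CO2, 23 nL compound was pintooled; the signal was measured repeatedly during 40 h incubation.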
# Potency is the fitted concentration of half-maximal effect; tags give direction and shape of the fitted curve.
row,Compound,Potency
1,O=C(O)Cc1ccccc1Nc1c(Cl)cccc1Cl,"inconclusive: 49 µM [rising, partial curve, poor fit]"
2,CC1CC(C)C(=O)C1=O (stereo not drawn),active: 13.8 µM
3,CC(C)C(O)(c1ccc(OC(F)(F)F)cc1)c1cncnc1 (stereo not drawn),"inconclusive: 48.8 µM [cytotoxic, single point]"
4,Cc1cc(O)c(C)c(C)c1O,"inconclusive: 4.25 µM [rising, full curve]"
5,Brc1cc2ccccc2c2ccccc12,"inconclusive: 49.3 µM [cytotoxic, partial curve, poor fit]"
6,O=C1c2cccc(O)c2C(=O)c2c(O)cccc21,"inconclusive: 17.6 µM [rising, partial curve] and inconclusive: 16.9 µM [rising, partial curve]"
7,Nc1ccccc1O,"inconclusive: 6.08 µM [rising, partial curve]"
8,COC(=O)/C=C/c1ccccc1,"inconclusive: 54.9 µM [rising, single point]"
9,CC(COCC(C)OC(=O)c1ccccc1)OC(=O)c1ccccc1 (stereo not drawn),"inconclusive: 54.5 µM [cytotoxic, single point] and inconclusive: 38.9 µM [cytotoxic, partial curve]"
10,CC(=O)CC(=O)Nc1ccc(S(=O)(=O)O)cc1,inactive
11,CCCCCCOc1ccccc1C(N)=O,"inconclusive: 10.7 µM [cytotoxic, partial curve]"
12,CC(CO)(CO)C(=O)O,inactive
13,O=C(O)Cc1cc(I)c(Oc2cc(I)c(O)c(I)c2)c(I)c1,inactive
